This passage reports AlphaScreen luminescence signal results from the supplement of paper PMC12423691.

First the molecules themselves.
B1: ARHGEF5, Q12774 (protein)
chain: MEAEEAQRGASPPISAIEEFSIIPEAPMRSSQVSALGLEAQEDEDPSYKWREEHRLSATQQSELRDVCDYAIETMPSFPKEGSADVEPNQESLVAEACDTPEHWEAVPQSLAGRQARTLAPPELWACPIQSEHLDMAPFSSDLGSEEEEVEFWPGLTSLTLGSGQAEEEEETSSDNSGQTRYYSPCEEHPAETNQNEGSESGTIRQGEELPPEELQESQGLLHPQEVQVLEEQGQQEAGFRGEGTLREDVCADGLLGEEQMIEQVNDEKGEQKQKQEQVQDVMLGRQGERMGLTGEPEGLNDGEWEQEDMERKAQGQGGPEQGEERKRELQVPEENRADSQDEKSQTFLGKSEEVTGKQEDHGIKEKGVPVSGQEAKEPESWDGGRLGAVGRARSREEENEHHGPSMPALIAPEDSPHCDLFPGASYLMTQIPGTQTESRAEELSPAALSPSLEPIRCSHQPISLLGSFLTEESPDKEIDQNSQQEESRLRKGTVSSQGTEVVFASASVTPPRTPDSAPPSPAEAYPITPASVSARPPVAFPRRETSCAARAPETASAPLSMDDPSPCGTSEMCPAALYGFPSTGTSPPRPPANSTGTVQHLRSDSFPGSHRTEQTPDLVGMLLSYSHSELPQRPPKPAIYSSVTPRRDRRSGRDYSTVSASPTALSTLKQDSQESISNLERPSSPPSIQPWVSPHNPAFATESPAYGSSPSFVSMEDVRIHEPLPPPPPQRRDTHPSVVETDGHARVVVPTLKQHSHPPPLALGSGLHAPHKGPLPQASDPAVARQHRPLPSTPDSSHHAQATPRWRYNKPLPPTPDLPQPHLPPISAPGSSRIYRPLPPLPIIDPPTEPPPLPPKSRGRSRSTRGGHMNSGGHAKTRPACQDWTVPLPASAGRTSWPPATARSTESFTSTSRSKSEVSPGMAFSNMTNFLCPSSPTTPWTPELQGPTSKDEAGVSEHPEAPAREPLRRTTPQQGASGPGRSPVGQARQPEKPSHLHLEKASSWPHRRDSGRPPGDSSGQAVAPSEGANKHKGWSRQGLRRPSILPEGSSDSRGPAVEKHPGPSDTVVFREKKPKEVMGGFSRRCSKLINSSQLLYQEYSDVVLNKEIQSQQRLESLSETPGPSSPRQPRKALVSSESYLQRLSMASSGSLWQEIPVVRNSTVLLSMTHEDQKLQEVKFELIVSEASYLRSLNIAVDHFQLSTSLRATLSNQEHQWLFSRLQDVRDVSATFLSDLEENFENNIFSFQVCDVVLNHAPDFRRVYLPYVTNQTYQERTFQSLMNSNSNFREVLEKLESDPVCQRLSLKSFLILPFQRITRLKLLLQNILKRTQPGSSEEAEATKAHHALEQLIRDCNNNVQSMRRTEELIYLSQKIEFECKIFPLISQSRWLVKSGELTALEFSASPGLRRKLNTRPVHLHLFNDCLLLSRPREGSRFLVFDHAPFSSIRGEKCEMKLHGPHKNLFRLFLRQNTQGAQAEFLFRTETQSEKLRWISALAMPREELDLLECYNSPQVQCLRAYKPRENDELALEKADVVMVTQQSSDGWLEGVRLSDGERGWFPVQQVEFISNPEVRAQNLKEAHRVKTAKLQLVEQQA

The other results are listed elsewhere or left out. Binding of human transcription factors and regulators to the viral nucleoprotein by AlphaScreen, crude cell-free proteins, amounts not normalised, one pass. Fold of the Venus control; higher = more signal. No active / inactive call. Single-pass screen; sequences are the whole Swiss-Prot entries looked up by name.

The assay addresses nucleoprotein N of Crimean-Congo hemorrhagic fever virus. The assay is described as follows: AlphaScreen luminescence signal relative to Venus negative control (fold); higher = stronger binding to CCHFV N. Here is the method:
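AlphaScreen binding of cell-free made, FLAG-GST-tagged human transcription factors and regulators (crude translation products) to biotinylated N protein; signal as fold of the FLAG-GST-Venus control. One pass.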
On the technique in general: Bead proximity is the source of the signal in Alpha formats.
In turn, B1 displayed an AlphaScreen luminescence signal of 0.93.
